Experimental data taken from PMC4336329 (PLoS ONE, 2015).
The whole screen tested about 310,000 compounds, of which about 14,000 (4.5%) showed an effect of 50% or more. Effects have a minus sign here. Some of the results follow.

The compounds below were run against human ether-à-go-go-related gene (hERG) potassium channel (human, UniProt Q12809) (assay: primary screen, population patch clamp on CHO cells stably expressing hERG).
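Further: peak tail current of the secondary pulse compared with the same well before compound.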

human ether-à-go-go-related gene (hERG) potassium channel, sequence (Q12809 whole entry, looked up): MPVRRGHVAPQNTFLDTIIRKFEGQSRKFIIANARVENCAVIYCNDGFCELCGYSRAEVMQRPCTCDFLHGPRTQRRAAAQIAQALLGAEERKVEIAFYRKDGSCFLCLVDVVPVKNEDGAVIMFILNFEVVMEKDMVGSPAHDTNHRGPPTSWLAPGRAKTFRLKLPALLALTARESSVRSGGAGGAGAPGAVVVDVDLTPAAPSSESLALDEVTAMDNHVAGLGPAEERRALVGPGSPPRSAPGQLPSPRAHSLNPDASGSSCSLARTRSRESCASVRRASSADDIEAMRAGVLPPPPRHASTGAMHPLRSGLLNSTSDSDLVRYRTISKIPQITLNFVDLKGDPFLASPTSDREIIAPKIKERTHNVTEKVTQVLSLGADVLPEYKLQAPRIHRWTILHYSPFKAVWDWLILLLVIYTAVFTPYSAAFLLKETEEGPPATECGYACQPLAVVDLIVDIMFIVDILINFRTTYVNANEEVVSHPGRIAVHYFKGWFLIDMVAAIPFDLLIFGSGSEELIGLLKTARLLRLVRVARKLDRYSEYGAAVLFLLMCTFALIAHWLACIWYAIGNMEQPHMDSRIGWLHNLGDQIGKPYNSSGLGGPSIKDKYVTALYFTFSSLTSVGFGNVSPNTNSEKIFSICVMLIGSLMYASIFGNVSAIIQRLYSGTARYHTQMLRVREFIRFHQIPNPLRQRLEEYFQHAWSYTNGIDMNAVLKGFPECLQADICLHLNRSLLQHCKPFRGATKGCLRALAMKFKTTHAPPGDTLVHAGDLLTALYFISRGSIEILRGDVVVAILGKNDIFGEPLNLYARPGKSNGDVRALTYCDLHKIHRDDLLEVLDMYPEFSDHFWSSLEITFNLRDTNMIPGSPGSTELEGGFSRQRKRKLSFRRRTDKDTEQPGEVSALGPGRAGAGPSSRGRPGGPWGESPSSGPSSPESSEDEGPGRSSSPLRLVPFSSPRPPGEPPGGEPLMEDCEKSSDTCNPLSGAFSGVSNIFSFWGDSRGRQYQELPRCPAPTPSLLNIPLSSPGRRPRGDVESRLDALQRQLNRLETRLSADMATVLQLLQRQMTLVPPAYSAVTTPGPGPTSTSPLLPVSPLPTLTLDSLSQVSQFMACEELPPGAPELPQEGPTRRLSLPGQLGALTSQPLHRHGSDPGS

Going from `CCOc1ccc(CCNC(=O)c2cccc(N3CCCC3=O)c2)cc1OCC` to `COc1ccc(CCNC(=O)c2cc(=O)[nH]c3ccc(Br)cc23)cc1OC`, the “hERG current change (%, negative = inhibition) at 10uM” value rises from 6.89% to 21.4%.

Compared with `N#C/C(=C/c1ccc(OCc2ccc(C(=O)O)cc2)c(Br)c1)c1cccc(F)c1`, `N#Cc1ccc(COC(=O)c2ccc3c(c2)OCO3)cc1` is lower in “hERG current change (%, negative = inhibition) at 10uM” value: 23.3% for the first, -27.4% for the second.

Going from `CCOC(=O)N1CCN(C(=O)CNC(=O)c2ccc(Br)cc2)CC1` to `CCOC(=O)N1CCC(NC(=O)c2ccc(Cl)cc2)CC1`, the “hERG current change (%, negative = inhibition) at 10uM” value rises from -29.1% to -14.5%.

Compared with `COc1ccccc1-c1ccc(NC2CCCC2)nn1`, `Cc1ccccc1CN1CCc2c(OCC(=O)N3CCCCC3)cccc2C1=O` is higher in “hERG current change (%, negative = inhibition) at 10uM” value: -32.7% for the first, -27.8% for the second.

Compared with `O=C(COC(=O)CCCNC(=O)c1ccc(Cl)cc1)NCc1ccccc1Cl`, `CC(C)OCCCNC(=O)c1ccc(C2SCC(=O)N2Cc2ccco2)cc1` (centres unmarked) is higher in “hERG current change (%, negative = inhibition) at 10uM” value: -28.8% for the first, -2% for the second.

Going from `COc1cccc(/C=C2\SC(=S)N(C(Cc3ccccc3)C(=O)O)C2=O)c1` (centres unmarked) to `CN1C(=O)/C(=C2\SC(=S)N(C(CCC(=O)O)C(=O)O)C2=O)c2ccccc21` (centres unmarked), the “hERG current change (%, negative = inhibition) at 10uM” value falls from 18.3% to 13%.

First: CCN(CC(=O)NCc1ccc(F)cc1)C(=O)Cc1ccc(OC)cc1
Second: CCN(CC)C(=O)CN(c1cc2c(cc1OC)oc1ccccc12)S(=O)(=O)c1ccc(C)cc1
The “hERG current change (%, negative = inhibition) at 10uM” value of the first is lower: -63.5% for the first, -3.73% for the second.

Going from `COc1ccc(Cc2nc3ccc(C(=O)NC(C)c4cnn(C)c4)cc3o2)cc1` (centres unmarked) to `COc1ccccc1N1CCN(C(c2cccs2)C(C)NC(=O)c2cccnc2)CC1` (centres unmarked), the “hERG current change (%, negative = inhibition) at 10uM” value falls from 2.04% to -22.5%.

Compared with `CCn1cc(CNC(=O)CC2C(=O)NCCN2CC(c2ccccc2)c2ccccc2)cn1` (centres unmarked), `Cc1cc(NC(=O)CSc2nc3ccccc3c(=O)n2-c2ccccc2)no1` is lower in “hERG current change (%, negative = inhibition) at 10uM” value: 14.4% for the first, 2.88% for the second.

Compared with `Cc1ccccc1CC(=O)c1ccc(O)c(C)c1O`, `Cc1ccccc1-n1c(=O)c2ccccc2n2cnnc12` is lower in “hERG current change (%, negative = inhibition) at 10uM” value: 1.81% for the first, -7.97% for the second.

First: Cc1ccc(S(=O)(=O)N(C)C)cc1NC(=O)COC(=O)C1=COCCO1
Second: CN(CC(=O)Nc1ccc(Cl)cc1)C(=O)C1=COCCO1
The “hERG current change (%, negative = inhibition) at 10uM” value of the first is lower: -5.68% for the first, 9.26% for the second.

Going from `COc1cccc(-n2c(SC)nnc2-c2cnccn2)c1` to `Cn1c(SCc2ccc(F)cc2)nnc1-c1ccncc1`, the “hERG current change (%, negative = inhibition) at 10uM” value rises from 3.46% to 5.86%.

First: Cc1nn(-c2ccccc2)c2nc(-c3ccncc3)cc(C(=O)NCc3ccco3)c12
Second: Cc1cccc(-n2c(SCC(=O)NCc3ccco3)nc3ccccc3c2=O)c1
The “hERG current change (%, negative = inhibition) at 10uM” value of the first is lower: -66.6% for the first, -17.6% for the second.

Going from `CCNC(=O)CSc1nnc(-c2cccc(S(=O)(=O)N(CC)CC)c2)n1CCc1ccccc1` to `CCN(CC)CCN1C(=O)C(=O)/C(=C(/O)c2cnn(-c3ccccc3)c2C)C1c1cccnc1` (centres unmarked), the “hERG current change (%, negative = inhibition) at 10uM” value rises from -9.82% to 21.3%.

First: Cc1cccc(N2CCN(C(=O)C(C)n3nc(C)n4c(cc5occc54)c3=O)CC2)c1C (centres unmarked)
Second: Cc1ccc(C)c2sc(NC(=O)c3ccc(N4CCCCC4)c([N+](=O)[O-])c3)nc12
The “hERG current change (%, negative = inhibition) at 10uM” value of the first is lower: -18.3% for the first, 8.22% for the second.

Compared with `COc1ccc(CCNC(=O)c2cn3ccc(C)cc3n2)cc1OC`, `COc1ccc(OC)c(NC(=O)Nc2cccnc2)c1` is higher in “hERG current change (%, negative = inhibition) at 10uM” value: 1.66% for the first, 11.2% for the second.

Going from `C/C(=N/NC(=O)c1ccccc1)c1ccc(NC(=O)C(F)(F)F)cc1` to `CC(C)OC(=O)c1ccc(NC(=O)c2cncc(Br)c2)cc1`, the “hERG current change (%, negative = inhibition) at 10uM” value falls from -0.422% to -6.9%.

Going from `O=S(=O)(NCCc1csc(-c2cccnc2)n1)c1cc(F)ccc1F` to `O=C(CSc1nnc(-c2cccnc2)o1)Nc1cccc(Cl)c1`, the “hERG current change (%, negative = inhibition) at 10uM” value falls from -9.81% to -13.4%.

Compared with `CCOc1ccc(Oc2cc(NC(=O)c3ccco3)cc([N+](=O)[O-])c2)cc1`, `O=C(CSc1ccccn1)Nc1cccc([N+](=O)[O-])c1` is lower in “hERG current change (%, negative = inhibition) at 10uM” value: 7.22% for the first, 2.52% for the second.

Compared with `Brc1ccc(-c2nc(N/N=C/c3cccnc3)c3ccccc3n2)cc1`, `Oc1ccc(N=Nc2ccc3ccccc3c2)cc1` is lower in “hERG current change (%, negative = inhibition) at 10uM” value: 10.6% for the first, 9.21% for the second.

Going from `COc1cccc(C2CC(=O)Nc3n[nH]c(-c4ccccc4)c32)c1OC` (centres unmarked) to `O=S(=O)(c1ccccc1)c1nc(-c2ccccc2)oc1N1CCCC1`, the “hERG current change (%, negative = inhibition) at 10uM” value rises from -13.4% to 8.44%.

Compared with `CCn1ncc(C2=NOC(C(=O)Nc3cccnc3)C2)c1C` (centres unmarked), `CCCCn1nnnc1NCc1cccnc1` is higher in “hERG current change (%, negative = inhibition) at 10uM” value: 1.02% for the first, 8.93% for the second.

Going from `Cn1c(N)c(C(=O)COC(=O)c2nc(Cl)ccc2Cl)c(=O)n(C)c1=O` to `CC(=O)c1cn(C)c(=O)n(C)c1=O`, the “hERG current change (%, negative = inhibition) at 10uM” value rises from -11.2% to 4.7%.

Compared with `COc1ccc([N+](=O)[O-])cc1NS(=O)(=O)c1cccc(C(=O)O)c1`, `Cc1ccnc(NC(=O)c2cccc(S(=O)(=O)N3CCCC3)c2)c1` is lower in “hERG current change (%, negative = inhibition) at 10uM” value: 16.7% for the first, -0.622% for the second.

Going from `C=CCNC(=O)C1CC(=O)N(c2ccc(OCc3ccccc3Cl)cc2)C1` (centres unmarked) to `CCOc1ccc(-n2c(=S)sc3c(=O)n(-c4ccccc4)c(SCC(=O)O)nc32)cc1`, the “hERG current change (%, negative = inhibition) at 10uM” value falls from 8.11% to -5.31%.

Going from `[O-][n+]1c2c(c3c4non(O)c4ccc31)CCCC2` to `CCc1ccc(C(=O)NN=C2CCCCCC2)s1`, the “hERG current change (%, negative = inhibition) at 10uM” value rises from 3.11% to 7.65%.

First: Cc1ccc(S(=O)(=O)N2CCCC2C(=O)N2CCCCCC2)cc1 (centres unmarked)
Second: Cc1ccc(S(=O)(=O)N2CCC(C(=O)N3CCC[C@H]3C(=O)NCc3ccco3)CC2)cc1
The “hERG current change (%, negative = inhibition) at 10uM” value of the first is lower: -10.7% for the first, -10.4% for the second.

First: CC1CC(CC(=O)Nc2nc(-c3ccccc3)cs2)C(=O)O1 (centres unmarked)
Second: Cc1cc(N2C(=O)CC(C(C)c3ccccc3)C2=O)no1 (centres unmarked)
The “hERG current change (%, negative = inhibition) at 10uM” value of the first is higher: 22.2% for the first, 1.87% for the second.

Going from `O=C1CCC(C(=O)N2CCN(c3ccccc3Cl)CC2)CN1CC1CCCCC1` (centres unmarked) to `Cc1cnccc1CN(C)C(=O)CC1C(=O)NCCN1CC1CCCCC1` (centres unmarked), the “hERG current change (%, negative = inhibition) at 10uM” value rises from -72.2% to -4.59%.

Compared with `FC(F)(F)c1ccnc(Oc2ccc(C3=NCCS3)cc2)c1`, `CCN1C(=O)[C@@H]2[C@@H](c3ccc(-c4ccc(OC)cc4)cc3)N3CCC[C@@]3(C(=O)OC)[C@@H]2C1=O.O=C(O)C(F)(F)F` is lower in “hERG current change (%, negative = inhibition) at 10uM” value: 14.5% for the first, -18.2% for the second.

Compared with `COc1cc(CNC2CCCCCCC2)cc(Cl)c1OC.Cl`, `CC(C)c1nnc(NC(=O)CCC(=O)NC2CCCCC2)s1` is higher in “hERG current change (%, negative = inhibition) at 10uM” value: -2% for the first, 1.73% for the second.

First: Cc1nnc(N2CCCC(C(=O)NCc3cccc(F)c3)C2)c2nn(-c3ccccc3)c(C)c12 (centres unmarked)
Second: CCc1nc2ccccc2c(C(=O)OCC(=O)Nc2cccc(S(=O)(=O)N3CCOCC3)c2)c1C
The “hERG current change (%, negative = inhibition) at 10uM” value of the first is lower: -35.3% for the first, -1.9% for the second.

Going from `COc1ccc(C(C(=O)NC(C)(C)C)N(CCO)C(=O)CCC(=O)Nc2cc(C)on2)cc1` (centres unmarked) to `COc1ccc(OCC(=O)N/N=C2/C=C(C)CC2)cc1`, the “hERG current change (%, negative = inhibition) at 10uM” value falls from 24% to 4.42%.

Going from `CC(C)c1ccc2[nH]c3c(c2c1)CCCC3=O` to `Cc1ccc(C2C3=C(CCCC3=O)OC3=C2C(=O)CCC3)cc1`, the “hERG current change (%, negative = inhibition) at 10uM” value falls from 6.64% to -3.98%.

Compared with `O=C(c1ccc(F)cc1)N1CCN2C(=O)c3ccccc3C12c1ccccc1` (centres unmarked), `O=C(CCc1ccccc1)NCC1(c2ccccc2)CCCC1` is higher in “hERG current change (%, negative = inhibition) at 10uM” value: -31.5% for the first, 4.81% for the second.

Going from `CC1=NN(c2ccc(C)c(C)c2)C(=O)/C1=C/c1ccc2c(c1)n(C)c(=O)n2C` to `N=C1/C(=C/c2cccn2-c2ccc([N+](=O)[O-])cc2)C(=O)N=C2SC=CN12`, the “hERG current change (%, negative = inhibition) at 10uM” value falls from -0.968% to -4.06%.

Compared with `CC(C)C(NC(=O)OCc1ccccc1)C(=O)OCC(=O)N1C(C)CCCC1C` (centres unmarked), `CC(CCc1ccccc1)NC(=O)CCC(=O)N1CCC(C(=O)O)CC1` (centres unmarked) is higher in “hERG current change (%, negative = inhibition) at 10uM” value: 4.95% for the first, 20.9% for the second.

First: CCc1nc2scc(-c3ccc(C)cc3)c2c(=O)n1N
Second: Cc1cccc2c1-c1sc(C(=O)Nc3cccc([N+](=O)[O-])c3C)cc1CO2
The “hERG current change (%, negative = inhibition) at 10uM” value of the first is lower: -8.41% for the first, 0.19% for the second.

Going from `Nc1c(Br)cc(Br)c(N2CCCC2=O)c1Br` to `Cl.O=C(NCC(c1cccs1)N1CCOCC1)c1cc2ccccc2o1` (centres unmarked), the “hERG current change (%, negative = inhibition) at 10uM” value falls from 7.05% to -15.7%.

Compared with `Cc1ccc(S(=O)(=O)N2CCN(Cc3ccccc3)CC2)s1`, `CC(/C=N/NC(=O)c1ccc(Cn2cc([N+](=O)[O-])cn2)o1)=C\c1ccccc1` is higher in “hERG current change (%, negative = inhibition) at 10uM” value: -21.9% for the first, -5.3% for the second.

Compared with `O=C(CSc1nccn1-c1ccc(Cl)cc1)NCc1ccc2c(c1)OCO2`, `Oc1ccccc1/C=N/n1cnn(Cc2ccccc2Cl)c1=S` is higher in “hERG current change (%, negative = inhibition) at 10uM” value: -33.4% for the first, 13.4% for the second.

Going from `CC(=O)Nc1ccc(S(=O)(=O)C(C#N)c2nc3ccccc3nc2NCCCO)cc1` (centres unmarked) to `COC(=O)[C@H](C)NC(=O)Nc1ccc(S(N)(=O)=O)cc1`, the “hERG current change (%, negative = inhibition) at 10uM” value rises from 0.646% to 12.1%.

Going from `COc1ccc(S(=O)(=O)N(n2c(C)nnc2-n2nc(C)cc2C)S(=O)(=O)c2ccc(OC)cc2)cc1` to `COc1cc2c(cc1OC)CN(CC(=O)Nc1ccc(F)cc1)C(C(=O)O)C2` (centres unmarked), the “hERG current change (%, negative = inhibition) at 10uM” value falls from 15.9% to 3.73%.
